In PubChem BioAssay AID1671194 (National Center for Advancing Translational Sciences (NCATS), 2021):
Screen size: about 140,000 compounds; about 240 (0.17%) were called active. Inconclusive results, whose numbers are uncertain, are shown with a selection of clear calls. Calls come from the whole dose curve; as a rule, active = well fitted inhibition curve with a large enough effect; inconclusive = small, poorly fitted or top-dose-only effect; inactive = no such curve, though single readings can be large or run the other way. A potency beside an inconclusive call is a rough fit, not a confirmed value. Some compounds were tested as several samples or in several runs, with calls that do not always agree.

experiment: Primary qHTS assay for inhibitors of alpha-synuclein gene (SNCA) expression; conditions: HEK-293 SNCA-luciferase knock-in, luminescence, 24 h; series mostly up to 57.2 µM; note: nearly all actives have a fitted effect of over 45% in size
Potency is the fitted concentration of half-maximal effect; tags give direction and shape of the fitted curve.

Row | Compound | Potency
1 | Cc1ccc2c(c1)C(Cc1nc3ccccc3c(=O)n1-c1ccc(Br)cc1)C(=O)N2 (stereo not drawn) | inconclusive: 39.8 µM [inhibitor, single point]
2 | Cc1nonc1CC(=O)N1C[C@H](O)[C@@H](N2CCC(O)CC2)C1 | inactive
3 | CC(C)N1CC2CCC(C1)N2C(=O)c1ccncc1 | inactive
4 | Cc1ccccc1-n1nc(C)c2c1NC(=O)CSC2c1ccccc1C(F)(F)F (stereo not drawn) | inconclusive: 39.8 µM [inhibitor, single point]
5 | Cc1nc(-c2cccs2)cc([C@H]2CN3CC[C@H]2C[C@@H]3CNS(=O)(=O)c2ccccc2)n1 | inconclusive: 6.31 µM [inhibitor, single point]
6 | COc1ccccc1N1CCN(C[C@H]2CN3CC[C@H]2C[C@@H]3CNC(=O)c2ccc3c(c2)OCO3)CC1 | inconclusive: 8.91 µM [inhibitor, single point]
7 | COCCOc1ccc2c(n1)CCNC2 | inactive
8 | COc1cc2c(cc1OC1CCCC1)NC(=O)C21CCN(C(=O)Cc2ccccc2)CC1 | inactive
9 | C=CCON=C(C[C@H]1O[C@@H]2O[C@]3(C)CC[C@@H]4[C@H](C)CC[C@@H]([C@H]1C)[C@@]24OO3)[C@H]1O[C@@H]2O[C@]3(C)CC[C@H]4[C@H](C)CC[C@@H]([C@@H]1C)[C@@]24OO3 | inconclusive: 1.21 µM [inhibitor, full curve, poor fit]
10 | COc1ccc2c(c1OC)CN1CCc3cc4c(cc3C1C2)OCO4 (stereo not drawn) | active: 3.04 µM
11 | C=CCN(C)C[C@H]1CN2CC[C@H]1C[C@@H]2CNC(=O)NC(C)C | inconclusive: 56.2 µM [inhibitor, single point]
12 | COc1ccc(-c2cc([C@H]3CN4CC[C@H]3C[C@@H]4CNS(=O)(=O)c3ccc(Cl)cc3)n(C)n2)cc1OC | inactive
13 | Cc1nc(-c2ccccc2)cc([C@H]2CN3CC[C@H]2C[C@@H]3CNS(C)(=O)=O)n1 | inconclusive: 14.1 µM [inhibitor, partial curve, poor fit]
14 | CC(C)NC(=O)NC[C@H]1C[C@@H]2CCN1C[C@@H]2CN(C)c1ccccc1 | inactive
15 | C#C[C@H]1CN2CC[C@H]1C[C@@H]2CNS(=O)(=O)c1ccc2ccccc2c1 | inconclusive: 12.6 µM [inhibitor, partial curve, poor fit]
16 | Cc1nc(-c2ccco2)cc([C@H]2CN3CC[C@H]2C[C@@H]3CNC(=O)Nc2ccccc2)n1 | inconclusive: 10 µM [inhibitor, partial curve, poor fit]
17 | CCOC(=O)[C@H]1CN(C(=O)c2ccc(OC)cc2)[C@]2(C)C(=O)N(CC3CC3)c3ccccc3[C@H]12 | inactive
18 | COc1cc2c(cc1Oc1ccccc1)NC(=O)C21CCN(C(=O)c2cccc(O)c2)CC1 | inconclusive: 10 µM [inhibitor, partial curve]
19 | CSCC(=O)N1C[C@@H]2C[C@H](C1)c1ccc(-c3ccccc3CN(C)C)c(=O)n1C2 | inactive
20 | O=C(NC[C@H]1C[C@@H]2CCN1C[C@@H]2CN1CCN(c2ccc(F)cc2)CC1)Nc1ccsc1 | inactive
21 | C/C=C(/C)C(=O)O[C@H]1C(C)=C2[C@H]([C@@H]1OC(=O)CCCCCCC)[C@@](C)(OC(C)=O)C[C@H](OC(=O)CCC)[C@@]1(O)[C@H]2OC(=O)[C@@]1(C)O | inconclusive: 39.8 µM [inhibitor, partial curve, poor fit]

Row | Compound | Potency
22 | Cc1ncccc1C(=O)N1[C@H]2CC[C@@H]1c1cnc(-c3ccc(F)cc3)nc1C2 | inactive
23 | CCOc1ccc(CN(CCc2ccc3c(c2)OCO3)Cc2cccc(Br)c2)cc1 | inactive
24 | O=C1NC2(Cc3ccccc31)CN(C1COC1)C2 | inconclusive: 14.1 µM [inhibitor, single point]
25 | COCCC(=O)Nc1ccc2n(c1=O)C[C@H]1C[C@@H]2CN(CCCc2ccccc2)C1 | inactive
26 | Cc1ccc(CC(=O)N2CCN(C3CCN(Cc4cccnc4)C3=O)CC2)cc1 (stereo not drawn) | inactive
27 | Cc1nc(-c2ccccc2)cc([C@H]2CN3CC[C@H]2C[C@@H]3CNC(=O)NC(C)C)n1 | inactive
28 | COc1ccccc1-c1cc([C@H]2CN3CC[C@H]2C[C@@H]3COC(=O)Nc2ccc(C(C)(C)C)cc2)n(C)n1 | inactive
29 | O=C(c1csnn1)N1CCC2(CC1)CN(Cc1ccncc1)C2 | inconclusive: 39.8 µM [inhibitor, single point]
30 | CC(=O)c1cccc(NC(=O)OC[C@H]2C[C@@H]3CCN2C[C@@H]3c2cc(C3CCCC3)nc(-c3ccncc3)n2)c1 | inconclusive: 28.2 µM [inhibitor, partial curve, poor fit]
31 | Cc1nc(-c2cccs2)cc([C@H]2CN3CC[C@H]2C[C@@H]3CNC(=O)c2ccco2)n1 | inconclusive: 56.2 µM [inhibitor, single point]
32 | O=C(NC[C@H]1C[C@@H]2CCN1C[C@@H]2CN1CCC(Cc2ccccc2)CC1)c1ccccc1 | inactive
33 | CC(C)c1ccc(NC(=O)OC[C@H]2C[C@@H]3CCN2C[C@@H]3c2cc(C3CCCC3)nc(-c3ccncc3)n2)cc1 | inconclusive: 39.8 µM [inhibitor, single point]
34 | O=C(O)CCC(=O)N1C[C@@H]2C[C@H](C1)c1ccc(-c3ccc(Cl)cc3)c(=O)n1C2 | inconclusive: 56.2 µM [inhibitor, partial curve, poor fit]
35 | CC(C)CC(=O)N1CCC2(CC1)c1nccn1-c1ccccc1CN2C | inactive
36 | O=C(Nc1ccc2n(c1=O)C[C@H]1C[C@@H]2CN(Cc2ccc(F)cc2)C1)c1cccs1 | inconclusive: 31.6 µM [inhibitor, single point]
37 | CC(=O)Nc1ccc(S(=O)(=O)NC[C@H]2C[C@@H]3CCN2C[C@@H]3c2cc(-c3ccco3)nc(C)n2)cc1 | inactive
38 | Cc1cc(OCC(=O)N2CCN(CCc3ccncc3)CC2)cc(C)c1Cl | inconclusive: 35.5 µM [inhibitor, single point]
39 | COc1ccc(-c2cn(C[C@H]3C[C@@H]4CCN3C[C@@H]4C(=O)N3CCOCC3)nn2)cc1 | inconclusive: 56.2 µM [inhibitor, single point]
40 | O=C(NCc1ccc(F)cc1)[C@H]1CN2CCC1C[C@@H]2Cn1cc(CO)nn1 (stereo partly drawn) | inactive
41 | CC[C@H]1CN2CC[C@H]1C[C@@H]2CNCc1ccc2c(c1)OCO2 | inconclusive: 35.5 µM [inhibitor, single point]
42 | COCCOCC(=O)N1[C@H]2CC[C@@H]1c1cnc(-c3ccc(F)cc3)nc1C2 | inactive

Row | Compound | Potency
43 | COc1ccc(-c2cn(C[C@H]3CC4CCN3C[C@@H]4C(=O)NCCNC(C)=O)nn2)cc1 (stereo partly drawn) | inactive
44 | C=CCN1C[C@@H]2CN(S(=O)(=O)c3cccnc3)C[C@]2(C(=O)O)C1 | inconclusive: 1.26 µM [inhibitor, full curve, poor fit]
45 | Cc1ccc(-n2c(/C=C/c3cccc4ccccc34)nc3ccccc3c2=O)cc1 | inconclusive: 2.82 µM [inhibitor, full curve]
46 | O=S1(=O)NCC2(CCN(Cc3ccc(Cl)s3)C2)Oc2ncccc21 (stereo not drawn) | inconclusive: 1.12 µM [inhibitor, full curve, poor fit]
47 | COc1cc2c(cc1-c1cccnc1)NC(=O)C21CCN(C(C)=O)CC1 | inconclusive: 10 µM [inhibitor, single point]
48 | COc1cc2c(cc1OCc1ccccc1)N([S+](=O)([O-])c1cccnc1)CC21CCN(C)CC1 | inactive
49 | COc1ccc2c(c1)C1(CCN(C(=O)c3ccccc3Br)C1)C(=O)N2 (stereo not drawn) | inactive
50 | COc1cccc(S(=O)(=O)N2CCC3(C2)C(=O)N(C)c2ccc(OC)cc23)c1 (stereo not drawn) | inconclusive: 3.98 µM [inhibitor, partial curve, poor fit]
51 | O=C(Nc1ccccc1)Nc1ccc2n(c1=O)C[C@H]1C[C@@H]2CN(C(=O)c2cccs2)C1 | inactive
52 | COCC1CN(C)CC12CCN(Cc1ccncc1)CC2 (stereo not drawn) | inconclusive: 0.708 µM [inhibitor, full curve, poor fit]
53 | c1cc(-c2nnc(C3CNCC34CCOCC4)o2)ccn1 (stereo not drawn) | inconclusive: 39.8 µM [inhibitor, single point]
54 | CN1CCN([C@H]2[C@@H]3OC[C@@H](O3)[C@@H](NCc3ccccn3)[C@@H]2O)CC1 | inconclusive: 56.2 µM [inhibitor, single point]
55 | CC(O)(CS(=O)(=O)c1ccc(F)cc1)C(=O)Nc1ccc(C#N)c(C(F)(F)F)c1 (stereo not drawn) | inconclusive: 42.9 µM [inhibitor, single point]
56 | COc1cc2c(cc1Oc1ccccc1)NC(=O)C21CCN(c2ncc(F)cn2)CC1 | inconclusive: 20 µM [inhibitor, partial curve, poor fit]
57 | O=C(Cc1ccccc1)N1Cc2ccccc2CC2(CCCCN2Cc2ccccn2)C1 (stereo not drawn) | inconclusive: 6.31 µM [inhibitor, full curve, poor fit]
58 | Cc1ccccc1-n1c(/C=C/c2ccccc2F)nc2ccccc2c1=O | inconclusive: 31.6 µM [inhibitor, single point]
59 | COCc1cn(C[C@H]2CC3CCN2C[C@@H]3C(=O)NC2CCCCC2)nn1 (stereo partly drawn) | inactive
60 | O=C(c1ccccc1)N1C[C@@H]2C[C@H](C1)c1c(/C=C/c3ccc(Cl)cc3)ccc(=O)n1C2 | inactive
61 | O=C(c1ccsc1)N1[C@H]2CC[C@@H]1c1cnc(-c3ccc(F)cc3)nc1C2 | inactive
62 | C[C@@H]1C[C@@H]([C@H](O)CC2CC(=O)NC(=O)C2)C(=O)[C@@H](C)C1 | inconclusive: 1.36 µM [inhibitor, full curve]
63 | COc1cc2c(cc1OCc1ccccc1)N(C(=O)c1c[nH]c3ccccc13)CC21CCN(C)CC1 | inconclusive: 31.6 µM [inhibitor, single point]
